According to the supplement of paper PMC4166925:
± gives the standard deviation of the averaged measurements. Whole data set: some 33,000 sequences, median “E-score (dimensionless, -0.5 to 0.5)” near -0.049, cut for the highest 2% near 0.37. The list shows a part of the results.

These sequences were tested on T1, PmTbr T-box DNA-binding domain (GST fusion) (assay: PBM E-score of 8-mer (E-score (dimensionless, -0.5 to 0.5)); Tbr is Tbrain of the sea star Patiria miniata (Pm) or the sea urchin Strongylocentrotus purpuratus (Sp); higher = stronger binding preference; most listed sequences are background and not binding sites). Details: the construct has about 5 more residues each side.
T1 sequence: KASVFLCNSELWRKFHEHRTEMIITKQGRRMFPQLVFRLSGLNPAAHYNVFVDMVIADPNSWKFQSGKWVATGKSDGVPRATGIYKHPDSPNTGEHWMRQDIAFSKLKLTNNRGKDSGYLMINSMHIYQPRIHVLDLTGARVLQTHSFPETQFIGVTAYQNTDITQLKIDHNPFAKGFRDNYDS
In short: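 Primer extension turned Universal Agilent oligonucleotide arrays double-stranded. They were incubated with 200 nM protein in PBS (pH 7.5); the protein was a GST-fused Tbr T-box DNA-binding domain expressed in BL21 E. coli at 20 °C and purified on glutathione. Every ungapped 8-mer was scored from the scanned, quantified probe intensities, and the Universal PBM Analysis Suite gave each an enrichment E-score averaged over duplicate arrays.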

Sequence | PBM E-score of 8-mer
CATTCAAA | -0.13 ± 0.052
ATGCAACA | 0.0352 ± 0.063
CACAGTCG | 0.1345 ± 0.0012
TATATCCA | -0.177 ± 0.035
AACCAGGG | -0.105 ± 0.052
GTGTCAAC | 0.466 ± 0.007
AGAATTTG | -0.0367 ± 0.037
AAAGCTGG | 0.0741 ± 0.016
AACCCAGC | -0.112 ± 0.039
GCCTATAA | -0.0939 ± 0.0041
GCGGACAC | 0.253 ± 0.011
GCCTCAGA | -0.241 ± 0.039
CAACCCCG | 0.0625 ± 0.04
CGAACTCC | -0.0375 ± 0.092
AATTGTCT | -0.25 ± 0.003
AGGGTTGG | -0.175 ± 0.032
CAATTTTA | -0.0591 ± 0.15
TACCGATA | -0.13 ± 0.018
CTTCGCAC | 0.454 ± 0.019
TGGAACAA | -0.247 ± 0.032
AATGCGCA | -0.0568 ± 0.095
AGTTACGG | -0.239 ± 0.0068
GTCTCATA | -0.0732 ± 0.012
CAGACAGC | 0.0475 ± 0.042
GTGCGTAA | 0.0926 ± 0.027

Sequence | PBM E-score of 8-mer
ACAAGAGC | 0.0118 ± 0.045
ATGTATTG | 0.0546 ± 0.12
AATTCCTG | -0.172 ± 0.024
AACAATAC | -0.091 ± 0.02
TCACCACA | 0.204 ± 0.054
ATTACAAA | -0.159 ± 0.11
CAGGTATC | 0.0923 ± 0.0027
CATTTTTC | -0.00057 ± 0.056
AGACCCTA | -0.257 ± 0.036
CAAGCCAC | 0.042 ± 0.037
AAGTCTTC | -0.0063 ± 0.08
AAATACGC | 0.0362 ± 0.0033
ATTCAGCG | -0.0915 ± 0.02
ACAATTCG | 0.211 ± 0.022
AGATGTTC | 0.0612 ± 0.07
GACCCACA | -0.123 ± 0.074
AAATCCGC | 0.111 ± 0.018
CGGCACAA | -0.139 ± 0.13
ATACGAAA | -0.073 ± 0.034
CCGCCCGA | 0.0216 ± 0.052
AAATCGAG | -0.00044 ± 0.0066
ACCAGGGG | 0.0176 ± 0.0056
GGTTTGTA | -0.229 ± 0.036
ACTAATAC | 0.034 ± 0.01
CGGCCTTC | -0.147 ± 0.021

Sequence | PBM E-score of 8-mer
CCATGTAC | -0.0752 ± 0.0069
CGCTGCAC | 0.129 ± 0.023
GCCGTAAC | -0.075 ± 0.028
CTGTTAAA | 0.23 ± 0.015
CAGCCGGA | -0.00386 ± 0.12
AATACTGC | -0.245 ± 0.043
GCCCACAA | -0.109 ± 0.0087
ACGGCACC | 0.258 ± 0.01
ACTCCTTA | 0.058 ± 0.053
CATTCCTA | -0.31 ± 0.012
TCGAATCA | 0.103 ± 0.044
AAGTATAA | -0.154 ± 0.16
GTGCCGCA | 0.173 ± 0.018
TCATTCCA | -0.257 ± 0.065
AGCTCGAA | 0.0841 ± 0.048
CAATGGCG | 0.0732 ± 0.042
TCGAGGCA | -0.0529 ± 0.096
AAAAGCGC | 0.193 ± 0.066
GAAATGGC | 0.0945 ± 0.033
ACCTAAGT | 0.0966 ± 0.0054
AACTAACC | 0.0484 ± 0.11
ATTGTCAA | 0.248 ± 0.039
CGAGAGCC | 0.018 ± 0.017
CAGTTACC | -0.147 ± 0.01
GATAAATC | -0.0393 ± 0.073

Sequence | PBM E-score of 8-mer
ACGGGACT | -0.152 ± 0.013
ACGCCGCA | 0.069 ± 0.059
TCCCTCCA | -0.0787 ± 0.00028
CAGCGGTA | -0.061 ± 0.018
CATAGAAG | -0.156 ± 0.11
AGCCTAGA | -0.122 ± 0.045
CGTAGGGC | -0.154 ± 0.0065
AATTGACA | 0.296 ± 0.065
TGCTCACA | 0.306 ± 0.011
AGTGTTTC | 0.134 ± 0.066
AGTTGAAC | 0.00736 ± 0.035
ATACTCGG | -0.0427 ± 0.15
AAGAATAC | -0.123 ± 0.032
GACAATTA | 0.0502 ± 0.026
ACGAGGCG | 0.246 ± 0.048
CCGAGGAG | 0.0278 ± 0.017
CGGAGTAG | -0.217 ± 0.066
AGATAGCT | -0.0197 ± 0.1
ACTGTGTC | 0.192 ± 0.03
ACGAACAA | -0.00251 ± 0.029
AATTAGGG | -0.114 ± 0.066
CGGGGACG | -0.0777 ± 0.013
AGTGTAAC | 0.264 ± 0.072
GAAGAATA | -0.147 ± 0.083
GCCACACA | 0.279 ± 0.031

Sequence | PBM E-score of 8-mer
CACGCACA | 0.106 ± 0.087
AGGGAGCC | -0.103 ± 0.015
ACAATCAC | 0.2 ± 0.034
CAATGGTA | -0.00848 ± 0.0096
CTGGCTAA | -0.0157 ± 0.044
GCAGGCGC | 0.263 ± 0.0029
GCGCACGC | 0.117 ± 0.027
ATTCGAAC | -0.16 ± 0.013
GACTCTGA | -0.0201 ± 0.024
GTCGGGGA | -0.0624 ± 0.0023
TGGATGAA | -0.246 ± 0.0051
ACTTACGC | 0.176 ± 0.01
CGCCCCCG | -0.06 ± 0.065
AAGGCCCC | -0.218 ± 0.0061
ACCAACCG | -0.0999 ± 0.013
GCGAGGCC | 0.144 ± 0.053
GACCAGAA | -0.0347 ± 0.081
GGGCCTTA | -0.208 ± 0.073
GCCGGGCC | -0.107 ± 0.06
ACGAATAA | -0.0186 ± 0.036
AGCCCCCA | -0.224 ± 0.029
TCCTTGCA | 0.0104 ± 0.024
AGGTCTCG | 0.0121 ± 0.033
GTTTCGAA | -0.0129 ± 0.14
GCAGAACA | -0.158 ± 0.046

Sequence | PBM E-score of 8-mer
GTACGAAC | -0.0755 ± 0.01
AGATATCC | -0.168 ± 0.052
AAATGATT | -0.165 ± 0.081
ATGTCAGA | -0.162 ± 0.069
ACGATCGC | 0.281 ± 0.015
AGCGAACA | 0.0494 ± 0.02
CTACTGGA | -0.0182 ± 0.054
TCCGTGAA | 0.109 ± 0.033
GTAAAGGA | -0.211 ± 0.036
CACTTGAG | 0.222 ± 0.044
ACCCCCTA | -0.0741 ± 0.0084
AGGGACAA | -0.108 ± 0.07
TAAGAGCA | -0.326 ± 0.022
GCTTAGAC | -0.21 ± 0.085
ATGAGTGG | -0.0184 ± 0.077
CCAAGGCC | -0.19 ± 0.025
GCGAATCA | 0.176 ± 0.023
CCCCTGGA | -0.186 ± 0.013
CAATAAAG | -0.0979 ± 0.06
ACGCGCAT | 0.0257 ± 0.033
CACGAACA | 0.0282 ± 0.043
CGCCGGGA | -0.0656 ± 0.061
GCGCTCCC | -0.133 ± 0.028
CATGTATA | -0.0384 ± 0.0011
ATGTTTGA | 0.102 ± 0.0089

Sequence | PBM E-score of 8-mer
TCCTGGCA | 0.0369 ± 0.053
ATAACGTA | -0.0536 ± 0.021
ATGCTGTG | 0.0432 ± 0.073
CAGATCGC | 0.216 ± 0.043
ATATCCCC | -0.0933 ± 0.088
GGGTCACC | 0.00244 ± 0.035
AGCGGGAG | 0.0556 ± 0.073
AGGGCTAC | -0.0845 ± 0.093
AGCAGCTC | -0.168 ± 0.034
ATGGGTCC | -0.314 ± 0.039
CTTGGTCA | -0.146 ± 0.035
GCACGCTA | 0.11 ± 0.054
GCGGAAGA | 0.0252 ± 0.071
CGCTCATC | -0.212 ± 0.037
ATTAGGTG | 0.374 ± 0.0089
ACAGCTAA | 0.119 ± 0.017
ACCTGGTA | 0.122 ± 0.036
GAACAAGC | -0.134 ± 0.045
ATCATTAG | -0.253 ± 0.028
GAAAAGCC | -0.0639 ± 0.09
ATCATACA | -0.0972 ± 0.048
TATGGGCA | -0.144 ± 0.0034
